Source: publication PMC12136788
Some of the results follow.

T1: UNK ZnF1-6 (called full-length) (human, UniProt Q9C0B0 30-357)
T1 sequence: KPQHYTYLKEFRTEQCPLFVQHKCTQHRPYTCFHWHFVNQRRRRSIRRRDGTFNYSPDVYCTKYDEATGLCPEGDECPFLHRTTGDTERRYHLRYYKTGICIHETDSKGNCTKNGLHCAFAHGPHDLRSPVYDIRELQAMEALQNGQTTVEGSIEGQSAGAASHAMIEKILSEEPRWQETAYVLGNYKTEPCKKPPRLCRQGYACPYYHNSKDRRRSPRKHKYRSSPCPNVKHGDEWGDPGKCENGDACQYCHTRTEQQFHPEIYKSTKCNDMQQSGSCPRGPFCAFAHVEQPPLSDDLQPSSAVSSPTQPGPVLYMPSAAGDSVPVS

B1: chr12:89642165:89642281:-|CDS|ENSG00000070961|unk|FALSE|bound_elsewhere (ssRNA)
RNA: GGGAGUUCUACAGUCCGACGAUCGCCAAAAACCUUUCUUCAAUUAGUAUGGGAAGCAUUACAAGAUGUCACUUUAAUUAUAUUAGAAAUUGCAGCCAUAGUAUCAUUGGGCCUUUCUUUUUAUCAGCCUCCAGAAGGGGAUAACAACAGAGGAUUGAGCAUCA
B2: ENSG00000070961:be:win_5551|3pUTR|ENSG00000070961|bound_else_gene|NA|bound_elsewhere_windowed (ssRNA)
RNA: GGGAGUUCUACAGUCCGACGAUCAAUUGUACAUUUAUUCAUCAGGUAUUUAUAGUGAAUCAUACUGUAAAAAAGAGGUAGCAUGAUAUGCUGGAAAGCAUAUUAGACUAGGAGUCAAGACCUGGUUUCUAGUCUUGGUUUUGCCAACAGAGGAUUGAGCAUCA
B3: chr12:3284029:3284272:+|3pUTR|ENSG00000011105|msi1|total|mutant (ssRNA)
RNA: GGGAGUUCUACAGUCCGACGAUCCAUGUGGGUAUUCCCACAACAGGUUCUGCACACCCCAGUUAUUUCACAGACAUUCCUGCCCGAAACUGUCAGACAAAUACCUCUCCCGUUCGGAUGCUGCUCACUUUCCCCCUUGCUUCUCAACAGAGGAUUGAGCAUCA
B4: chr1:54031757:54031935:-|3pUTR|ENSG00000116209|msi1|FALSE|unique (ssRNA)
RNA: GGGAGUUCUACAGUCCGACGAUCUUAGCUAUGAGCUGAUCAUUGCUCCUUCUCACCUCCUGCCAUGAUACUGUCAGUUACCUUAGUUAACAAGCUGAAUAUUUAGUAGAAAUGAUGCUUCUGCUCAGGAAUGGCCCACAAAUCCAACAGAGGAUUGAGCAUCA
B5: chr8:94436494:94436868:-|CDS|ENSG00000265817|control|control|control (ssRNA)
RNA: GGGAGUUCUACAGUCCGACGAUCAAUAGUAGAAAAGAAUAGAUGUUGGGAUAUCAUAGCAGUUAACUAUAAUGCAAUUGGAGUAGACCGCCCUCCUCGAACAGCACAGGGCCUACGCACCCUUUAUAAAAGGCUCAAAGAAUACAACAGAGGAUUGAGCAUCA
B6: ENSG00000135632:stop:overlap|stop_codon|ENSG00000135632|stop_codon|NA|stop_codon (ssRNA)
RNA: GGGAGUUCUACAGUCCGACGAUCAACGGCCCCUGGUGGCUGCACAGUUUCUCUGGAAUGCACUUUAUCGCUACCGAGGGCACUAGAGAAGGCAGAGGAGAAUGCCCAGAGGCUGACCGGGAAACCAGGCCAGGUUCUGCCUCACAACAGAGGAUUGAGCAUCA

molecular target: T1, UNK ZnF1-6 (called full-length); assay: nsRBNS (natural sequence RNA bind-n-seq); RBNS binding buffer (assumed for nsRBNS): 25 mM Tris pH 7.5, 150 mM KCl, 3 mM MgCl2, 0.01% Triton X-100, 500 ug/ml BSA, 20 U/ml SUPERase-In, 4 C; UNK is unkempt and MSI1 is Musashi-1; names of the RNAs are library labels; protein concentration not given here; high values mean tight binding

| Binder | binding signal |
| --- | --- |
| B1 | 3.35 enrichment R |
| B2 | 0.3 enrichment R |
| B3 | 1.05 enrichment R |
| B4 | 0.756 enrichment R |
| B5 | 3.51 enrichment R |
| B6 | 0.714 enrichment R |
